Screen size: about 52,000 compounds; about 1,700 (3.3%) were called active. Rule as the data show it: active = survival mostly below about 52% (no sharp cut-off); inactive = mostly above about 56%. This is one part of the list.
Each compound was assayed on Wild type (assay: growth inhibition of S. aureus wild type versus tarO mutant, primary screen, teichoic acid synthesis inhibitors, RN4220, OD600 (AID 463173)). Settings: S. aureus RN4220 wild type/DeltatarO growth, OD600, 18 h, stronger effect = lower value, screened at 18.75 µg/mL (by protocol).
`Cc1ccc(CNC(=O)CCS(=O)(=O)c2cc3c4c(c2)CCN4C(=O)CC3)cc1` was tested, and the survival was inactive: 60%. In the case of `Cc1ccc(NC(=O)c2ccc(NC(=O)N3CCSc4ncccc43)cc2)c(Cl)c1`, the survival is reported as inactive: 57%. `CCN(CC)c1cc(C)c2cc(NC(=O)c3ccc(OC)c(OC)c3)ccc2n1` was tested, and the survival was inactive: 68%. With `CCOC(=O)c1scc(-c2ccccc2)c1S(=O)(=O)N1CCN(c2ccc(Cl)cc2)CC1` the survival was inactive: 92%. For `COc1ccc(-c2cc(C)no2)cc1S(=O)(=O)N1CCN(c2cccc(C)c2)C(C)C1` (stereo unspecified), the survival was inactive: 73%. `Cc1ccccc1NC(=O)NCCc1c[nH]c2ccccc12` was tested, and the survival was inactive: 66%. In the case of `O=C(Nc1ccccc1)c1cnc(N2CCCCC2)c2ccccc12`, the survival is reported as inactive: 59%. With `COc1ccccc1C(=O)Nc1c(C(=O)Nc2cc(Cl)ccc2C)sc2nc(C)cc(C)c12` the survival was inactive: 78%. In the case of `COc1cccc(CN2C(=O)c3ccccc3Sc3ccc(C(=O)NCc4ccccc4)cc32)c1`, the survival is reported as inactive: 85%. For `COc1cccc(N2CCN(C(=O)c3cnc4c(-c5ccccc5)c(C)nn4c3C)CC2)c1`, the survival was inactive: 76%. For `Fc1ccccc1Nc1c2c(nc3ccccc13)CCC2`, the survival was inactive: 102%. With `N#CCSc1nnc(CNc2ccc(Cl)cc2)n1-c1ccccc1` the survival was inactive: 115%. In the case of `COc1cccc2cc(C(=O)N3CCN(c4cc(C)ccc4C)CC3)c(=O)oc12`, the survival is reported as inactive: 80%. In the case of `Cc1nc(SCC(=O)N2CCN(c3ccccc3)CC2)[nH]c(=O)c1C`, the survival is reported as inactive: 88%. For `O=C1CC(C(=O)O)C2(CCCC2)O1` (stereo unspecified), the survival was inactive: 118%. In the case of `COc1ccc(N2CCN(C(=O)c3cc4sccc4n3Cc3ccccc3)CC2)cc1`, the survival is reported as inactive: 108%. `COc1ccc(-c2ccc(NS(=O)(=O)c3ccc(NC(C)=O)cc3)cc2)nn1` was tested, and the survival was inactive: 81%. For `COc1ccc(OC)c(NC(=O)c2c(NCc3cccs3)sc3c2CCCCC3)c1`, the survival was inactive: 80%. In the case of `CCN(CC)c1ccc(NC(=O)c2c(C)nn(-c3ccc(F)cc3)c2-n2cccc2)c(C)c1`, the survival is reported as inactive: 73%. With `CCc1ccccc1NC(=O)CN(C)S(=O)(=O)c1cccc2nsnc12` the survival was inactive: 78%. With `CCOc1cc(CNC(=O)c2cc(-c3ccccc3)n[nH]2)cc(OCC)c1OCC` the survival was inactive: 68%. In the case of `COc1ccc(CCNC(=O)c2ccc3c(c2)CCN3S(=O)(=O)c2ccccc2)cc1`, the survival is reported as inactive: 99%. In the case of `CCc1ccc(NC(=O)CSc2nc3nc(C)cc(C)n3n2)cc1`, the survival is reported as inactive: 67%. For `COc1ccc(-c2noc(N3CCC(C(=O)Nc4cccc(C)c4C)CC3)n2)cc1`, the survival was inactive: 84%. For `CCOc1cc(C(c2c(C)[nH]n(-c3ccccc3)c2=O)c2c(C)[nH]n(-c3ccccc3)c2=O)ccc1O`, the survival was inactive: 64%. With `COc1cc(/C=C/C(=O)C2CC2)cc(OC)c1OC` the survival was inactive: 89%. For `COc1ccc(NC(=O)c2oc3ccc(S(=O)(=O)N4CCOCC4)cc3c2C)c(OC)c1`, the survival was inactive: 152%. For `COc1ccc(N2CCN(C(=O)c3cc4c(=O)n(Cc5cccnc5)ccc4nc3C)CC2)cc1`, the survival was inactive: 88%. `COc1ccc(CCNC(=O)c2cnn(-c3ccc(F)cc3)c2C2CCN(C(=O)OC(C)(C)C)CC2)cc1OC` was tested, and the survival was inactive: 68%. `O=C(CN1C(=O)C2(SCC(=O)N2c2ccc(F)c(F)c2)c2ccccc21)NCCc1ccccc1` (stereo unspecified) was tested, and the survival was inactive: 80%. In the case of `CC(Oc1ccccc1)C(=O)Nc1ccc(C(=O)OCc2cc(=O)n3nc(C(C)C)sc3n2)cc1` (stereo unspecified), the survival is reported as inactive: 72%. With `Cc1[nH]c2ccc(C(=O)N3CCN(c4ccccc4F)CC3)cc2c1C` the survival was inactive: 74%. With `CCN(CC)S(=O)(=O)c1ccc(NC(=O)Cn2ncc3c([nH]c4ccccc43)c2=O)cc1` the survival was inactive: 80%. With `CCOc1ccc(/C=C/c2nc(C#N)c(N3CCN(CC)CC3)o2)cc1` the survival was inactive: 79%. For `Cc1cc(C)cc(OCC(=O)Nc2nc(-c3ccc(F)cc3)ns2)c1`, the survival was inactive: 89%. With `Cc1cc(F)ccc1NC(=O)c1csc2c1CCC(C)C2` (stereo unspecified) the survival was inactive: 90%. With `Cc1ccccc1NC(=O)CSc1c(C(C)C)cnc2c1c(=O)n(C)c(=O)n2C` the survival was inactive: 74%. `CC1OC(Nc2ccc(OC(F)(F)F)cc2)C(O)C(O)C1O` (stereo unspecified) was tested, and the survival was inactive: 114%. `COC(=O)c1cc(NS(=O)(=O)c2ccc3c(c2)OCCO3)ccc1Cl` was tested, and the survival was inactive: 67%. With `CCOc1ccccc1NC(=O)CSc1nc2ccccc2nc1N1CCOCC1` the survival was active: -11%. For `Cc1ccc(NC(=O)CN2C(=O)CCc3cc(S(=O)(=O)N4CCOCC4)ccc32)cc1N(C)C`, the survival was inactive: 66%. In the case of `O=C(CCc1nc2cccnc2n1Cc1cccs1)Nc1cccc(C(F)(F)F)c1`, the survival is reported as inactive: 79%. `O=C(c1ccc(C(F)(F)F)cc1)N1CCC(c2noc(-c3ccc(S(=O)(=O)N4CCCC4)cc3)n2)CC1` was tested, and the survival was inactive: 92%. In the case of `O=C1NC(=O)C(=Cc2ccc(N3CCCC3)o2)C(=O)N1`, the survival is reported as inactive: 102%. `NC(=O)c1ccccc1NC(=O)C1CCCN(c2ncnc3onc(-c4ccc(F)cc4)c23)C1` (stereo unspecified) was tested, and the survival was inactive: 68%. With `O=C(c1cccs1)N(Cc1cccnc1)c1nc2c(Cl)cccc2s1` the survival was inactive: 99%. `Cc1ccccc1Cn1c(=O)n(Cc2ccc3c(c2)OCO3)c(=O)c2oc3ccccc3c21` was tested, and the survival was inactive: 117%. With `O=C(NC1CCCC1)c1ccc2c(c1)N(Cc1ccc(C(F)(F)F)cc1)C(=O)c1ccccc1S2` the survival was inactive: 93%. `CN(C)C(=O)c1ccc(NC(=O)Cn2nnnc2-c2ccccc2F)cc1` was tested, and the survival was inactive: 113%. For `COc1ccc(CNCCNC(=O)c2ccncc2)c(OC)c1OC`, the survival was inactive: 90%. In the case of `COCCCNS(=O)(=O)c1cc(-c2onc(C)c2C)ccc1OC`, the survival is reported as inactive: 111%. In the case of `COc1ccc(N2CCN(C(=O)CSc3n[nH]c(-c4ccccc4)n3)CC2)cc1`, the survival is reported as inactive: 72%. For `COc1ccc(-c2noc(CCC(=O)N(C)c3ccccc3C)n2)cc1`, the survival was inactive: 71%. For `O=C(Nc1ccc(-c2nc3cc(NC(=O)c4ccccc4Cl)ccc3o2)cc1)c1ccccc1Cl`, the survival was inactive: 68%. In the case of `COc1ccc(Nc2c3c(nc4ccc(NC(=O)/C=C/c5cc(OC)c(OC)c(OC)c5)cc24)CCCC3)cc1OC`, the survival is reported as inactive: 98%. For `COc1cccc(C2(O)CCN(C(=O)c3cccs3)CC2)c1`, the survival was inactive: 111%. For `CCN(CC)C(=O)C1C(=O)N(C)C2(C)CC1c1ccccc1O2` (stereo unspecified), the survival was inactive: 108%. With `N#Cc1ccc(-c2cccs2)nc1SCc1c(F)cccc1Cl` the survival was inactive: 50%. In the case of `COc1ccc(N(CC(=O)NCc2ccc(F)cc2)S(=O)(=O)c2c(C)noc2C)cc1`, the survival is reported as inactive: 85%. In the case of `CN(C)c1ccc(CN(CC2CCCO2)C(=O)COc2ccccc2Cl)cc1` (stereo unspecified), the survival is reported as inactive: 80%. `COc1ccccc1CNC(=O)Cc1c(C)c2c(cc(C)c3c(C)coc32)oc1=O` was tested, and the survival was inactive: 84%. In the case of `Cc1ccccc1C(=O)N(Cc1ccc(N(C)C)cc1)Cc1ccco1`, the survival is reported as inactive: 87%. With `Nn1c(Nc2ccccc2)nc2sc3c(c2c1=O)CCCC3` the survival was inactive: 104%. In the case of `COc1ccc(OC)c(-c2nc3c(C#N)c[nH]n3c2NC2CCCCC2)c1`, the survival is reported as inactive: 102%. `Cc1cccc(NC(=O)NC2CC3CCCC(C2)N3CC(C)C)c1` (stereo unspecified) was tested, and the survival was inactive: 102%. For `CC(=O)Nc1ccc2oc(-c3ccccc3)nc2c1`, the survival was inactive: 104%. For `CCCN(c1ccc(C(C)C)cc1)S(=O)(=O)c1ccc2c(c1)CCN2C(=O)CC`, the survival was inactive: 118%. With `CCc1c(C)nc(N)n2c(SCc3ccc(C(F)(F)F)cc3)nnc12` the survival was inactive: 101%. For `NC(Cc1ccc2nsnc2c1)C(=O)O` (stereo unspecified), the survival was inactive: 114%. With `CCc1nonc1NC(=O)c1oc2ccc(F)cc2c1C` the survival was inactive: 89%. For `c1ccc2c(c1)n1cnnc1c1nncn21`, the survival was inactive: 93%. `CN(C)c1ccc(CNC(=O)C2CCCN(S(=O)(=O)c3ccc4c(c3)oc(=O)n4C)C2)cc1` (stereo unspecified) was tested, and the survival was inactive: 98%. For `O=C(/C=C/c1ccccc1)Nc1ccc2c(c1)OCCO2`, the survival was inactive: 107%. For `CC1=C(C(=O)Nc2ccc(Cl)cc2)C(c2ccccc2C)n2ncc(C(=O)Nc3ccc(C)cc3)c2N1` (stereo unspecified), the survival was inactive: 81%. In the case of `COc1ccc(CCNC(=O)C(=O)NCC(c2ccc3c(c2)OCO3)N2CCOCC2)cc1` (stereo unspecified), the survival is reported as active: 0%. `Cc1cccc(OCC(=O)NC(Cc2c[nH]c3ccccc23)C(=O)O)c1C` (stereo unspecified) was tested, and the survival was inactive: 73%. `COc1ccc(-n2cc(-c3ccccc3)c3c(NC4CCCCC4)ncnc32)cc1` was tested, and the survival was inactive: 124%. With `O=C1OC2(c3ccccc3)C3CCCC2C13` the survival was inactive: 115%. `O=C(Nc1cc(F)ccc1F)N1CCC(CN2CCOCC2)CC1` was tested, and the survival was inactive: 112%. For `COc1ccc(CCNC(=O)Cc2nn(C)c(=O)c3ccccc23)cc1OC`, the survival was inactive: 107%. For `Cc1cccc(OCCCCn2c(C3CC(=O)N(c4ccccc4Cl)C3)nc3ccccc32)c1` (stereo unspecified), the survival was active: 17%. For `Cc1ccc2c(CC(=O)Nc3cccc(Cl)c3C)coc2c1`, the survival was inactive: 91%. `Cn1c(=O)n(C/C=C/c2ccccc2)c(=O)c2c1nc1n2CCN1c1ccc(F)cc1` was tested, and the survival was inactive: 89%. `COc1ccc(S(=O)(=O)NCCc2sc(C)nc2C)cc1F` was tested, and the survival was inactive: 92%. In the case of `O=C1c2ccccc2C(=O)N1CCc1c[nH]c2ccccc12`, the survival is reported as inactive: 111%. In the case of `Cc1ccc(-c2nc3cc(NC(=O)c4cc5ccccc5o4)ccc3o2)cc1`, the survival is reported as inactive: 80%. In the case of `CCN1C(=O)c2ccccc2Sc2ccc(NC(=O)COc3ccc(Cl)cc3)cc21`, the survival is reported as inactive: 81%. In the case of `CCOc1ccc(-c2cnc(NCc3ccc(C(F)(F)F)cc3)n2C)cc1`, the survival is reported as active: -12%. For `CN1CCN(c2ncc3c(n2)CCN(Cc2cc(Br)cs2)C3)CC1`, the survival was inactive: 129%. For `COc1ccc(C(=O)CC2(O)C(=O)Nc3c(C)cccc32)c(OC)c1OC` (stereo unspecified), the survival was inactive: 69%. In the case of `CCOc1ccc(-n2c(SCC(=O)Nc3cccc(Cl)c3)nc3c(oc4ccccc43)c2=O)cc1`, the survival is reported as inactive: 71%.

Source: PubChem BioAssay AID463173 (ICCB-Longwood Screening Facility, Harvard Medical School, 2010)
